Here are results for 53 compounds from ChEMBL document CHEMBL4888484, “Replenishing the malaria drug discovery pipeline: Screening and hit evaluation of the MMV Hit Generation Library 1 (HGL1) against asexual blood stage Plasmodium falciparum ,using a nano luciferase reporter read-out” (2022).

In all, about 150,000 compounds went through this assay and about 540 (0.36%) showed an effect of 50% or more. This is one part of the list.

The experiment has as its system Plasmodium falciparum. As to the kind of experiment: Primary screen in NF54 nanoGlo assay, in single point, at 2uM, 72h; a lower Z score goes with more inhibition. The settings on record: timepoint 72 hour. Format: functional, Erythrocyte.
With `COCCn1ccc2c(OCC(=O)Nc3ccc(N4CCN(CCO)CC4)cc3)cccc21`, the “% Inhibition” value worked out at 8% and the Z score is on record as -1.

For the compound `CC1=NO[C@H](C(=O)N2CCC3(CCC(=O)N(CCc4ccncc4)C3)CC2)C1`, the “% Inhibition” value came to 6% and the Z score is on record as -1.28.

As to `COc1cccc([C@H](C)N(C)Cc2cccc(-c3nc(C)c(F)c(=O)[nH]3)c2)c1`, the “% Inhibition” value is recorded as -9% and the Z score was 1.33.

`CN(C(=O)C1CCCC(C(F)(F)F)C1)c1ccc(S(C)(=O)=O)cc1` (stereo unspecified): the “% Inhibition” value was -3% and the Z score amounted to 0.28.

As for `C=CCN1CCN(Cc2cc(=O)[nH]c(-c3ccccc3)n2)CC1`, the “% Inhibition” value is -11% and the Z score is on record as 1.9.

Regarding `CCCc1nc(CN2C(=O)C3CC=CCC3C2=O)no1` (stereo unspecified), the “% Inhibition” value is -7% and the Z score was found to be 0.97.

Turning to `Clc1cccc(OCCOc2ccc3ncccc3c2)c1`, the “% Inhibition” value is given as -2% and the Z score turned out to be 0.27.

As for `Cc1noc(C2CCN(C(=O)c3csc4c3CCCC4)CC2)n1`, the “% Inhibition” value is -3% and the Z score came to 0.44.

Consider `CC(=O)N1CC(C)Oc2ccc(S(=O)(=O)NC(CC(=O)O)c3ccc(C)cc3C)cc21` (stereo unspecified), for which the “% Inhibition” value is -9% and the Z score is recorded as 1.33.

As for `COc1cc(CC(=O)N2CCN(c3cc(C(C)C)n4cnnc4n3)CC2)cc(OC)c1`, the “% Inhibition” value was -6% and the Z score is on record as 0.76.

With `COc1ccccc1NC(=O)[C@H](Cc1ccccc1)NS(=O)(=O)c1ccc2c(c1)c(=O)n(C)c(=O)n2C`, the “% Inhibition” value is given as -1% and the Z score came to 0.08.

Consider `c1ccc2sc(NC[C@H]3CN(c4nncs4)CCO3)nc2c1`, for which the “% Inhibition” value is recorded as -63% and the Z score is 7.35.

As for `Cc1cnc(C(=O)Nc2ccc3c(C)n[nH]c3c2)cn1`, the “% Inhibition” value is 0% and the Z score is on record as -0.05.

As to `O=C(NC1CC1)c1ccccc1NC(=O)C1CCN(S(=O)(=O)c2ccc(Cl)cc2)CC1`, the “% Inhibition” value was -4% and the Z score stood at 0.67.

Consider `O[C@]1(c2ccc(Cl)cc2Cl)CN2C=CC=CC2=[N+]1Cc1ccccc1`, for which the “% Inhibition” value was determined as 7% and the Z score was -1.16.

For the compound `Cc1cnc(CCNC(=O)c2ccncc2)n1C1CC1`, the “% Inhibition” value is -10% and the Z score is 1.86.

Regarding `Cn1cc(CNC(=O)C2CC2c2cccc(Cl)c2Cl)cn1` (stereo unspecified), the “% Inhibition” value was 2% and the Z score is reported as -0.34.

Regarding `CCc1nc(C)c(CC(=O)N2CCC(c3n[nH]c(=O)n3CC)CC2)c(=O)[nH]1`, the “% Inhibition” value is on record as 17% and the Z score is reported as -2.11.

Turning to `Cc1nn(-c2ncccn2)c2c1[C@@H](c1ccc(F)cc1F)CC(=O)N2`, the “% Inhibition” value is -1% and the Z score stood at 0.13.

Consider `CNS(=O)(=O)c1cc(Br)c(C)cc1C`, for which the “% Inhibition” value is 4% and the Z score is recorded as -0.72.

`COCCNC(=O)c1cn(C2CCN(C(=O)c3c(-c4ccccc4)noc3C)CC2)nn1`: the “% Inhibition” value is recorded as -1% and the Z score was found to be 0.15.

Consider `O=C(Cn1cc(C(=O)c2ccncc2)c(=O)c2ccc(F)cc21)Nc1ccccc1Cl`, for which the “% Inhibition” value is -3% and the Z score is 0.35.

Turning to `C[C@@H](Cn1cccn1)NCc1csc(CC(=O)N(C)C)n1`, the “% Inhibition” value is -1% and the Z score amounted to 0.16.

`CC(C)(C)CN1CC[C@H](C2CCN(C(=O)c3csnn3)CC2)C1`: the “% Inhibition” value is listed as -8% and the Z score is 1.11.

Take `O=c1c2cnn(-c3ccccc3)c2nnn1Cc1cccc2cccnc12`: the “% Inhibition” value is on record as -16% and the Z score is recorded as 1.79.

Regarding `O=C(c1ccsc1)N1CC(N2C(=O)CCC2=O)C1`, the “% Inhibition” value was -3% and the Z score came out at 0.39.

Consider `Cc1cc(C(=O)Nc2nnc(Cc3cccc(F)c3)s2)c2c(C)n[nH]c2n1`, for which the “% Inhibition” value is on record as -2% and the Z score was found to be 0.24.

Consider `COc1ccc(CN2C(C(=O)O)CC[C@H]2c2ccccc2)cc1` (stereo partly specified), for which the “% Inhibition” value was -2% and the Z score is 0.35.

For the compound `CC(C)c1nnc(CN2CCC([C@]3(C)NC(=O)NC3=O)CC2)s1`, the “% Inhibition” value is given as -5% and the Z score was 0.69.

For the compound `Fc1cc(CNCc2ccc(N3CCCCC3)nc2)cc(F)c1F`, the “% Inhibition” value was found to be 1% and the Z score is recorded as -0.15.

Take `CCCc1nccn1-c1cncc(N)c1`: the “% Inhibition” value is given as -11% and the Z score is reported as 1.73.

`COc1ccccc1-c1nnc2c3ccc(Cl)cc3nc(N3CCN(C(=O)c4c(F)cccc4F)CC3)n12`: the “% Inhibition” value is recorded as -2% and the Z score is 0.31.

On to `Cc1cccc(N2CCN(C(=O)C[C@@H]3NC(=O)NC3=O)CC2)c1C`, for which the “% Inhibition” value is -9% and the Z score turned out to be 1.46.

As to `Fc1cccc2oc(N3CCCO3)nc12`, the “% Inhibition” value is given as -2% and the Z score is recorded as 0.46.

`Cc1nc(CCCNC(=O)c2n[nH]c3c2CCC3)sc1C`: the “% Inhibition” value is -2% and the Z score was determined as 0.28.

`O=C(NCc1ccc(F)cc1F)c1[nH]nnc1-c1ccc(F)cc1`: the “% Inhibition” value is listed as -14% and the Z score is 2.69.

Turning to `O=C(c1csc(-c2ccco2)n1)N(Cc1ccccn1)c1ccc(F)cc1`, the “% Inhibition” value is reported as -8% and the Z score worked out at 1.09.

`CO[C@H]1CCOC[C@@H]1NC(=O)c1coc(-c2ccccc2Cl)n1`: the “% Inhibition” value was -11% and the Z score amounted to 2.01.

For `CS(=O)(=O)N1CCC(C(=O)OC2CN(c3nc4ccccc4s3)C2)CC1`, the “% Inhibition” value is listed as -1% and the Z score was 0.16.

For `Cc1cc2c3c([nH]c2cc1S(=O)(=O)N1CCN(c2ccccc2)CC1)CC(C)(C)CC3=O`, the “% Inhibition” value was -14% and the Z score was 2.74.

Turning to `CCn1cc(-c2c(-c3ccccc3)ncn2Cc2ccc3nonc3c2)c(C)n1`, the “% Inhibition” value was -9% and the Z score was found to be 1.82.

On to `CCCCc1cc(C[C@H]2CNCC[C@H]2CC(=O)N(CC)CC)no1`, for which the “% Inhibition” value was 10% and the Z score is reported as -1.29.

With `Cc1nccn1CCN(C)[C@@H](C(=O)O)c1ccc(C(C)(C)C)cc1`, the “% Inhibition” value is -14% and the Z score came to 1.99.

`Cn1cc(-c2csc(-c3ccoc3)n2)cn1`: the “% Inhibition” value was -14% and the Z score is listed as 2.59.

As to `CC(C)(C)[C@H]1CCCN(CCCS(C)(=O)=O)CC1`, the “% Inhibition” value is recorded as -11% and the Z score was found to be 2.14.

Turning to `O=C(c1nc2cccnc2s1)N1CCN(c2cccs2)C(=O)C1`, the “% Inhibition” value is -15% and the Z score is 2.34.

Consider `CC(C)COc1ccc(C(C)(C)C(N)=O)cc1`, for which the “% Inhibition” value is given as -3% and the Z score was determined as 0.49.

For the compound `CNC(=O)[C@@]12CCOC[C@@H]1CN(C(=O)NCCc1cccc(O)c1)C2`, the “% Inhibition” value is given as -9% and the Z score is on record as 0.92.

As for `O=C(CN1Cc2ccccc2OC(c2ccccc2F)C1)N1CCCC1c1nc2cc(F)ccc2[nH]1` (stereo unspecified), the “% Inhibition” value worked out at 4% and the Z score is recorded as -0.66.

Turning to `CCCc1cc(CNc2nc(N)nc3c2CCCC3)on1`, the “% Inhibition” value is on record as -2% and the Z score was determined as 0.23.

With `O=C(NCc1ccc(CO)cc1)[C@]1(c2ccccc2)CCCO1`, the “% Inhibition” value is -4% and the Z score amounted to 0.85.

In the case of `CCn1cc(CN2C[C@H](C(=O)O)[C@@H](c3ccccc3C)C2)cn1`, the “% Inhibition” value is reported as -5% and the Z score was determined as 0.77.

For `C[C@H](Oc1ccccc1)C(=O)NC1CCN(c2cnsn2)CC1`, the “% Inhibition” value turned out to be 1% and the Z score is on record as -0.15.
